Measured values published in patent US20220185896A1.

Target: recombinant, full length human Galectin-9 (human), O00182
Assay: cell-based or functional assay

apoptosis of MOLM-13 cells: 10%
B1: anti-Galectin-9 antibody G9.2-17 (IgG4) (antibody)
heavy: EVQLVESGGGLVQPGGSLRLSCAASGFTVSSSSIHWVRQAPGKGLEWVAYISSSSGYTYYADSVKGRFTISADTSKNTAYLQMNSLRAEDTAVYYCARYWSYPSWWPYRGMDYWGQGTLVTVSSASTKGPSVFPLAPCSRSTSESTAALGCLVKDYFPEPVTVSWNSGALTSGVHTFPAVLQSSGLYSLSSVVTVPSSSLGTKTYTCNVDHKPSNTKVDKRV[human IgG4 Fc with S228P L445P (EU numbers) cut from this listing]
light: DIQMTQSPSSLSASVGDRVTITCRASQSVSSAVAWYQQKPGKAPKLLIYSASSLYSGVPSRFSGSRSGTDFTLTISSLQPEDFATYYCQQSSTDPITFGQGTKVEIKRTVAAPSVFIFPPSDEQLKSGTASVVCLLNNFYPREAKVQWKVDNALQSGNSQESVTEQDSKDSTYSLSSTLTLSKADYEKHKVYACEVTHQGLSSPVTKSFNRGEC
